Laboratory results taken from a compilation of properties of binary mixtures (doi:10.1016/j.fluid.2022.113559).
Some of these densities may be calculated back from excess volumes.

Test: xn = mol fraction of the nth substance listed
Conditions: 101 kPa, x1 = 0.3333

Structure (SMILES)	mass density (283.15 K) [kg/m3]	mass density (298.15 K) [kg/m3]	mass density (303.15 K) [kg/m3]	mass density (308.15 K) [kg/m3]	mass density (318.15 K) [kg/m3]	mass density (323.15 K) [kg/m3]	mass density (328.15 K) [kg/m3]	mass density (333.15 K) [kg/m3]	mass density (338.15 K) [kg/m3]	mass density (343.15 K) [kg/m3]	mass density (353.15 K) [kg/m3]	mass density (288.15 K) [kg/m3]	mass density (313.15 K) [kg/m3]	mass density (348.15 K) [kg/m3]
CCOS(=O)(=O)[O-].CC[n+]1ccn(C)c1 + CS(C)=O	1159	1145.8	1141.4	1137	1128.2	1123.8	1119.4	1115	1110.5	1106.1	1097.3			
CC[n+]1ccn(C)c1.N#C[S-] + CS(C)=O	1124.5	1112.2	1108.1		1095.8	1091.7		1083.5	1079.4	1075.3	1067.1	1120.4	1099.9	1071.2
